Screen size: about 130,000 compounds; about 550 (0.42%) were called active. Inconclusive results, whose numbers are uncertain, are shown with a selection of clear calls. The call rests on the fitted dose curve; in most records, active means well fitted inhibition curve with a large enough effect; inconclusive means small, poorly fitted or top-dose-only effect, or effect the other way; inactive means flat fitted curve, though single readings scatter. No potency is given beside an inconclusive call; the fits are too rough.
Assay: qHTS Assay for Inhibitors of the ERK Signaling Pathway using a Homogeneous Screening Assay; Stimulation with EGF; further: nearly all actives have a fitted effect of over 55% in size
Settings: HEK293-V1b, EGF-stimulated phospho-ERK AlphaScreen
Summary of the method: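 HEK293 cells stably expressing V1b receptor, serum-reduced (1% FBS) overnight, got compound for 30 min at 37C, then 25 nM EGF for 5 min. Lysate phospho-ERK read by AlphaScreen SureFire; AC50 from Hill fits.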
With `COc1cc(SC)ccc1C(=O)Nc1ccncc1` the Potency was inconclusive [activator, full curve, poor fit].
With `CCNc1ccc(Br)cc(C(=O)/C=C/c2ccc(Cl)cc2Cl)c1=O` the Potency was inconclusive [inhibitor, single point].
For `Cc1c(C(=O)N(Cc2ccccc2)Cc2cccs2)cnn1-c1ccc(Cl)cc1`, the Potency was inconclusive [activator, partial curve, poor fit].
In the case of `Cc1cccc(OCCCC(=O)Nc2ccc(N(C)C)cc2)c1`, the Potency is reported as inconclusive [inhibitor, partial curve].
With `CCOc1ccc(C(=O)c2ccc([N+](=O)[O-])cc2Cl)cc1` the Potency was inconclusive [inhibitor, single point].
For `CCOC(=O)c1ccc(N/C=C/C(=O)c2ccccc2)cc1`, the Potency was inconclusive [inhibitor, single point].
For `COc1ccc(Nc2nc(-c3ccc4c(c3)NC(=O)CO4)cs2)cc1`, the Potency was active: 20 µM.
In the case of `COC(=O)CNC(=O)c1cccc(-c2ccc(OC)cc2)c1`, the Potency is reported as inconclusive [activator, full curve, poor fit].
For `O=c1c2c(nc3cc(-c4cccc(Cl)c4)[nH]n13)CCCC2`, the Potency was inconclusive [inhibitor, partial curve].
For `CCCCN(CC)CCNC(=O)c1cc2c(C)nc3ccccc3c2o1`, the Potency was “inactive”.
In the case of `O=C(Nc1ccccc1)c1cc2ccccc2c(=O)s1`, the Potency is reported as “inactive”.
In the case of `COc1cccc(Nc2nc3ccc(OC)cc3s2)c1`, the Potency is reported as “inactive”.
In the case of `CN1c2ccccc2N(C)C1(C)c1cccc2ccccc12`, the Potency is reported as inconclusive [inhibitor, single point].
For `Cn1cccc1C(=O)N1CCC2(CCCN(Cc3ccncc3)C2)CC1`, the Potency was “inactive”.
In the case of `CCOC(=O)c1sc2nc(Cc3ccc(Cl)cc3)[nH]c(=S)c2c1C`, the Potency is reported as “inactive”.
In the case of `CCc1ccc(CN(C)C(=O)CCc2nc3ccccc3n(-c3ccc(OC)cc3)c2=O)cc1`, the Potency is reported as inconclusive [inhibitor, partial curve].
For `COc1cc(/C=N/NC(=O)c2cccnc2)ccc1OS(=O)(=O)c1cc(C)ccc1C`, the Potency was inconclusive [inhibitor, single point].
For `CCN1CCN(Cc2ccc(NC(=O)c3ccc(C)c(NC(=O)C(=O)c4c[nH]c5ccccc45)c3)cc2C(F)(F)F)CC1`, the Potency was inconclusive [inhibitor, single point].
In the case of `Cc1ccc2cc3cc(C(=O)N4CC(C)CC(C)C4)oc3nc2c1` (centres undefined), the Potency is reported as inconclusive [inhibitor, single point].
In the case of `COc1ccc(C(=O)CSc2[nH]c(=O)cc(C(F)(F)F)c2C#N)cc1`, the Potency is reported as “inactive”.
For `O=C(NNc1ccc([N+](=O)[O-])cc1)c1ccccc1Cl`, the Potency was inconclusive [activator, full curve, poor fit].
With `CCOC(=O)COc1cc([N+](=O)[O-])cc2cccnc12` the Potency was “inactive”.
In the case of `CC[n+]1c(/C=C/C=C/N(C(C)=O)c2ccccc2)sc2cc(OC)ccc21`, the Potency is reported as inconclusive [inhibitor, single point].
With `O=C(Nc1ccccn1)c1cc(-c2cccnc2)nc2ccc(Br)cc12` the Potency was “inactive”.
With `Cc1cc(-c2cc(-c3ccc(Cl)cc3)on2)nc(NCC2CC2)n1` the Potency was inconclusive [inhibitor, single point].
For `Cc1ccc(-n2[nH]c(C)c(/C=N/Nc3ccc([N+](=O)[O-])cc3[N+](=O)[O-])c2=O)cc1C`, the Potency was active: 15.8 µM.
For `CC(=O)OC1CC2C(C)(C)C(=O)C3OC3[C@]2(C)C2CC[C@@]3(C)C(c4ccoc4)OC(=O)C4OC43[C@]12C` (some centres undefined), the Potency was “inactive”.
For `CCCCN(C)S(=O)(=O)c1ccc(C(=O)N(CCN(C)C)c2nc3ccc(C)cc3s2)cc1`, the Potency was “inactive”.
In the case of `CC1=CC(C)(C)NC(=O)N1c1ccc(C)cc1`, the Potency is reported as inconclusive [inhibitor, single point].
For `Cc1ccc(CN2CCN(/N=C/c3cc(Br)cc(Br)c3O)CC2)cc1`, the Potency was “inactive”.
In the case of `Cc1ccc(S(=O)(=O)NCC2CCC(C(=O)NCc3cccs3)CC2)cc1` (centres undefined), the Potency is reported as inconclusive [inhibitor, single point].
For `Clc1ccc(Nc2ncnc3c2nnn3Cc2ccccc2)cc1`, the Potency was “inactive”.
In the case of `COc1ccccc1NS(=O)(=O)c1ccc(N/N=C/C=C/c2ccccc2[N+](=O)[O-])c([N+](=O)[O-])c1`, the Potency is reported as inconclusive [inhibitor, partial curve].
With `COc1ccc(Nc2nc(Nc3ccc(OC)cc3OC)nc(N3CCN(C)CC3)n2)c(OC)c1` the Potency was inconclusive [inhibitor, single point].
For `O=C(NCCCn1ccnc1)c1nn2c(C(F)(F)F)cc(-c3ccccc3)nc2c1Cl`, the Potency was inconclusive [inhibitor, full curve, poor fit].
For `Cc1cccc(NC(=O)c2ccc(NCC3CCCO3)c([N+](=O)[O-])c2)n1` (centres undefined), the Potency was inconclusive [inhibitor, single point].
For `Cc1ccc(-c2cc(C(=O)OC3CCOC3=O)c3ccccc3n2)c(C)c1` (centres undefined), the Potency was inconclusive [inhibitor, partial curve].
For `CC(=O)NC(=S)Nc1ccc([N+](=O)[O-])cc1C`, the Potency was “inactive”.
In the case of `CCC(C(=O)OCC(=O)Nc1cc(Cl)ccc1Cl)c1ccccc1` (centres undefined), the Potency is reported as inconclusive [activator, partial curve].
For `O=c1c(-c2ccc(F)c(F)c2)nc2cncnc2n1Cc1ccc(F)cc1`, the Potency was inconclusive [inhibitor, partial curve].
With `O=C(c1ccco1)N1CCC[C@@]2(CCN(c3ccccc3)C2)C1` the Potency was inconclusive [inhibitor, partial curve].
For `Cc1ccc(C)c(NC(=S)c2ccc3ccccc3n2)c1`, the Potency was inconclusive [inhibitor, partial curve, poor fit].
With `O=S(=O)(N1CCCCC1)N1CCN(c2cc(Cl)ccc2Cl)CC1` the Potency was inconclusive [activator, single point].
In the case of `Nc1c(C(O)(C(F)(F)F)C(F)(F)F)cc(C(O)(C(F)(F)F)C(F)(F)F)c2ccccc12`, the Potency is reported as inconclusive [inhibitor, single point].
Potency means the concentration at half of the fitted maximal effect; tags describe the fitted curve by direction and shape.
